This is one part of the list. Most values come without repeats; read them as rough.
Key:
Assay in all cases: cell count relative to DMSO control; melanoma cells; higher = more viable cells
Conditions in all cases: library dose: low library concentration; 72 h
MZ2-MEL = tested on: MZ2-MEL
MeWo = tested on: MeWo
RPMI7951 = tested on: RPMI7951
RVH-421 = tested on: RVH-421
SkMel28 = tested on: SkMel28
SkMel2 = tested on: SkMel2
SkMel30 = tested on: SkMel30
UACC62 = tested on: UACC62
SkMel5 = tested on: SkMel5
UACC257 = tested on: UACC257
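Also: cell number obtained by counting DAPI-stained nuclei in high-throughput microscope images with image analysis software, screen run in 1,536-well plates.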

SMILES | cell count (MZ2-MEL) | cell count (MeWo) | cell count (RPMI7951) | cell count (RVH-421) | cell count (SkMel28) | cell count (SkMel2) | cell count (SkMel30) | cell count (UACC62) | cell count (SkMel5) | cell count (UACC257)
O=C(Nc1cc(C(F)(F)F)cc(C(F)(F)F)c1)c1cc(Cl)ccc1O + CC1(C)CCC(c2ccc(Cl)cc2)=C(CN2CCN(c3ccc(C(=O)NS(=O)(=O)c4ccc(N[C@H](CCN5CCOCC5)CSc5ccccc5)c(S(=O)(=O)C(F)(F)F)c4)cc3)CC2)C1 [ABT263] (first compound 0.016 µM, partner dose 0.4 µM) | 97.4% | 73.7% | 60.1% | 62.4% | 92.9% | 91.3% | 86.1% | 96.2% | – | –
Cn1nnc2c(C(N)=O)ncn2c1=O [temozolomide] + COc1ccc2c(c1)CCC1C2CCC2(C)C(NCCCCCCN3C(=O)C=CC3=O)CCC12 [U73122] (first compound 2 µM, partner dose 0.4 µM) | 90.3% | 101% | 82.9% | 114% | 89.2% | – | 84.4% | 79.7% | 114% | 82.6%
O=C(O)[C@@H]1[O][Sb](=[O])([O][Sb]2(=[O])[O][C@H]([C@H](O)CO)[C@H](O)[C@H](C(=O)O)[O]2)[O][C@H]([C@H](O)CO)[C@@H]1O (some centres not stated) [stibogluconate] + CCCS(=O)(=O)Nc1ccc(F)c(C(=O)c2c[nH]c3ncc(Cl)cc23)c1F [PLX4720] (first compound 2 µM, partner dose 0.08 µM) | 78.5% | 101% | 108% | 81.9% | 101% | 96.5% | 119% | 67.4% | – | –
O=C(Nc1cc(C(F)(F)F)cc(C(F)(F)F)c1)c1cc(Cl)ccc1O + CC(=O)c1c(C)c2cnc(Nc3ccc(N4CCNCC4)cn3)nc2n(C2CCCC2)c1=O [palbociclib] (first compound 0.016 µM, partner dose 0.04 µM) | 85.1% | 66.8% | 70.6% | 97.1% | 60.8% | 80.7% | 62.7% | 73.6% | – | –
Cc1cc(N2CCOCC2)cc2[nH]c(-c3c(NC[C@@H](O)c4cccc(Cl)c4)cc[nH]c3=O)nc12 + O=c1cc(-c2cccc3c2Sc2ccccc2S3)oc(N2CCOCC2)c1 [KU55933] (first compound 0.2 µM, partner dose 1 µM) | 100% | 83.9% | 90.5% | 123% | 82.1% | – | 80.3% | 82.7% | 92.2% | 74.7%
Cc1cc(N2CCOCC2)cc2[nH]c(-c3c(NC[C@@H](O)c4cccc(Cl)c4)cc[nH]c3=O)nc12 + COc1ccc(COc2ccc(Cc3cnc(N)nc3N)cc2OC)cc1 [GW2580] (first compound 0.2 µM, partner dose 1 µM) | 99.2% | 91.5% | 102% | 51.3% | 97.7% | – | 76.1% | 105% | 106% | 81.3%
O=C(O)[C@@H]1[O][Sb](=[O])([O][Sb]2(=[O])[O][C@H]([C@H](O)CO)[C@H](O)[C@H](C(=O)O)[O]2)[O][C@H]([C@H](O)CO)[C@@H]1O (some centres not stated) [stibogluconate] + Nc1nc(F)nc2c1ncn2[C@@H]1O[C@H](CO)[C@@H](O)[C@@H]1O [fludarabine] (first compound 2 µM, partner dose 0.2 µM) | 101% | 48.9% | 78.9% | 92.4% | 95.4% | 10.5% | 14.7% | 81.8% | – | –
O=C(Nc1cc(C(F)(F)F)cc(C(F)(F)F)c1)c1cc(Cl)ccc1O + Cn1nnc2c(C(N)=O)ncn2c1=O [temozolomide] (first compound 0.016 µM, partner dose 2 µM) | 98.1% | 94.7% | 111% | 103% | 88.6% | 104% | 90% | 76.4% | – | –
O=C(O)[C@@H]1[O][Sb](=[O])([O][Sb]2(=[O])[O][C@H]([C@H](O)CO)[C@H](O)[C@H](C(=O)O)[O]2)[O][C@H]([C@H](O)CO)[C@@H]1O (some centres not stated) [stibogluconate] + OCc1c[nH]c2ccccc12 [Indole-3-carbinol] (first compound 2 µM, partner dose 0.8 µM) | 92.2% | 94.1% | 112% | 88.9% | 90.7% | 102% | 97% | 93.9% | – | –
O=C(Nc1ccccc1)c1cc([N+](=O)[O-])ccc1Cl + Cn1cc(/C=C2\C(=O)Nc3cccnc32)c2ccccc21 [GW441756] (first compound 2 µM, partner dose 0.4 µM) | 94.5% | 100% | 89.3% | 98.1% | 83.3% | – | 87.7% | 82.7% | 76.9% | 87.3%
O=C(Nc1cc(C(F)(F)F)cc(C(F)(F)F)c1)c1cc(Cl)ccc1O + C=CCNC1=C2C[C@@H](C)C[C@H](OC)[C@H](O)[C@@H](C)/C=C(\C)[C@H](OC(N)=O)[C@@H](OC)/C=C\C=C(/C)C(=O)NC(=CC1=O)C2=O [Tanespimycin] (first compound 0.016 µM, partner dose 0.002 µM) | 99.4% | 96.4% | 91.3% | 100% | 108% | 103% | 109% | 92.9% | – | –
Cc1cc(N2CCOCC2)cc2[nH]c(-c3c(NC[C@@H](O)c4cccc(Cl)c4)cc[nH]c3=O)nc12 + Cn1cc(/C=C2\C(=O)Nc3cccnc32)c2ccccc21 [GW441756] (first compound 0.2 µM, partner dose 0.4 µM) | 99.2% | 95.7% | 124% | 85.1% | 87.4% | – | 81.4% | 94.2% | 59.6% | 85.3%
O=C(O)c1ccc2c(c1)nc(Nc1cccc(Cl)c1)c1ccncc12 + Nc1ccn([C@@H]2O[C@H](CO)[C@@H](O)C2(F)F)c(=O)n1 [gemcitabine] (first compound 0.4 µM, partner dose 0.0004 µM) | 77.2% | 89.4% | 94.8% | 94.9% | 103% | 88.9% | 79.8% | 103% | – | –
O=C(Nc1ccccc1)c1cc([N+](=O)[O-])ccc1Cl + O=C(O)C(=O)Nc1sc2c(c1C(=O)O)CCNC2 [TCS401] (first compound 2 µM, partner dose 1.66667 µM) | 93.7% | 96.3% | 89% | 89.5% | 79.6% | – | 80.9% | 85.8% | 84% | 86.8%
O=C(O)[C@@H]1[O][Sb](=[O])([O][Sb]2(=[O])[O][C@H]([C@H](O)CO)[C@H](O)[C@H](C(=O)O)[O]2)[O][C@H]([C@H](O)CO)[C@@H]1O (some centres not stated) [stibogluconate] + O=C(O)c1ccc2c(c1)nc(Nc1cccc(Cl)c1)c1ccncc12 [CX4945] (first compound 2 µM, partner dose 0.4 µM) | 104% | 105% | 114% | 125% | 113% | 102% | 95.7% | 110% | – | –
Cn1nnc2c(C(N)=O)ncn2c1=O [temozolomide] + COc1ccc(-c2ccc3c(N4CCOCC4)nc(N4C[C@@H](C)O[C@@H](C)C4)nc3n2)cc1CO [KU0063794] (first compound 2 µM, partner dose 0.02 µM) | 86.7% | 106% | 117% | 98.6% | 75.7% | – | 97.2% | 78.7% | 101% | 88.9%
O=C(Nc1cc(C(F)(F)F)cc(C(F)(F)F)c1)c1cc(Cl)ccc1O + O=C(/C=C/c1cccnc1)NCCCCC1CCN(C(=O)c2ccccc2)CC1 [FK866] (first compound 0.016 µM, partner dose 0.01 µM) | 62.6% | 91.1% | 94.3% | 89.4% | 97% | 82.2% | 112% | 98.3% | – | –
Cc1cc(N2CCOCC2)cc2[nH]c(-c3c(NC[C@@H](O)c4cccc(Cl)c4)cc[nH]c3=O)nc12 + COc1cc(N2CCC(N3CCN(C)CC3)CC2)ccc1Nc1ncc(Cl)c(Nc2ccccc2S(=O)(=O)C(C)C)n1 [NVP-TAE684] (first compound 0.2 µM, partner dose 0.08 µM) | 94.7% | 96.2% | 89.1% | 104% | 89.4% | – | 84.9% | 106% | 84.6% | 77.3%
O=C(O)[C@@H]1[O][Sb](=[O])([O][Sb]2(=[O])[O][C@H]([C@H](O)CO)[C@H](O)[C@H](C(=O)O)[O]2)[O][C@H]([C@H](O)CO)[C@@H]1O (some centres not stated) [stibogluconate] + COc1ccc(Cl)c(Nc2nc3ccccc3nc2NS(=O)(=O)c2cccc(NC(=O)C(C)(C)N)c2)c1 [XL147] (first compound 2 µM, partner dose 0.8 µM) | 83.1% | 88.8% | 73.8% | 113% | 106% | 92.1% | 100% | 97.7% | – | –
Cn1nnc2c(C(N)=O)ncn2c1=O [temozolomide] + O=c1cc(-c2cccc3c2Sc2ccccc2S3)oc(N2CCOCC2)c1 [KU55933] (first compound 2 µM, partner dose 1 µM) | 85.5% | 99.1% | 116% | 120% | 91.9% | – | 114% | 84.4% | 96.6% | 97.8%
O=C(O)[C@@H]1[O][Sb](=[O])([O][Sb]2(=[O])[O][C@H]([C@H](O)CO)[C@H](O)[C@H](C(=O)O)[O]2)[O][C@H]([C@H](O)CO)[C@@H]1O (some centres not stated) [stibogluconate] + CS(=O)(=O)CCNCc1ccc(-c2ccc3ncnc(Nc4ccc(OCc5cccc(F)c5)c(Cl)c4)c3c2)o1 [lapatinib] (first compound 2 µM, partner dose 0.8 µM) | 95.8% | 96.5% | 98.2% | 108% | 92.9% | 100% | 111% | 86.1% | – | –
Cc1cc(N2CCOCC2)cc2[nH]c(-c3c(NC[C@@H](O)c4cccc(Cl)c4)cc[nH]c3=O)nc12 + O=S(=O)(c1ccccc1)N(CC(F)(F)F)c1ccc(C(O)(C(F)(F)F)C(F)(F)F)cc1 [T0901317] (first compound 0.2 µM, partner dose 1.4 µM) | 110% | 96.5% | 109% | 113% | 89.7% | – | 77.4% | 87.4% | 70.3% | 73.7%
O=C(Nc1cc(C(F)(F)F)cc(C(F)(F)F)c1)c1cc(Cl)ccc1O + Cn1cnc2c(F)c(Nc3ccc(Br)cc3Cl)c(C(=O)NOCCO)cc21 [selumetinib] (first compound 0.016 µM, partner dose 0.015 µM) | 111% | 84.5% | 98.7% | 86.5% | 105% | 88.7% | 82.9% | 82.9% | – | –
O=C(Nc1cc(C(F)(F)F)cc(C(F)(F)F)c1)c1cc(Cl)ccc1O + Cn1sc(=O)n(Cc2ccccc2)c1=O [TDZD-8] (first compound 0.016 µM, partner dose 0.4 µM) | 97.8% | 93.8% | 89.2% | 113% | 118% | 94.2% | 111% | 115% | – | –

Source: the supplement of paper PMC4604168 (melanoma cell lines)
